Assay [1] deals with HSkMC (human skeletal muscle cells). Put plainly: cytotoxicity call (relative viability < 0.9). The conditions noted are these: 10 µM.
The test system of assay [2] is HepG2. The assay can be described thus: cytotoxicity call (relative viability < 0.9). The conditions noted are these: 10 µM.
For assay [3], the system named is S. aureus RN4220. The assay can be described thus: growth inhibition call (relative growth <= 0.2). The conditions noted are these: 50 µM.

The other results are listed elsewhere or left out.

Consider `CC(=O)OC1CCC2(C)C(CCC3(C)C2CC=C2C4CC(C)(C)CCC4(C(=O)O)CCC23C)C1(C)C` (configuration not stated), for which the cytotoxicity call in assay [1] and in assay [2] was “inactive” in each case. For the same molecule, in assay [3], the growth inhibition call was “inactive”.
In the case of `CO[C@H]1CN(C)C(=O)c2cc(NS(=O)(=O)c3cn(C)cn3)ccc2OC[C@@H](C)N(CCC(F)(F)F)C[C@@H]1C`, the cytotoxicity call in assay [1] and in assay [2] was “inactive” each time. Moreover, in assay [3], the growth inhibition call was “inactive”.
Take `COc1ccc2c3c(n(c2c1)C)[C@H](CO)N(C[C@]13CCN(CC1)C(=O)c1ccccc1)C(=O)Nc1ccccc1F`: the cytotoxicity call in assay [1] was “active”. Moreover, the cytotoxicity call in assay [2] was “inactive”. For the same molecule, the growth inhibition call in assay [3] is “inactive”.
Regarding `CCN(CC)CCOC(=O)C(c1ccccc1)C1CCCCC1.Cl` (configuration not stated), the cytotoxicity call in assay [1] was “inactive”. Also, the cytotoxicity call in assay [2] was “active”. Also, in assay [3], the growth inhibition call is “inactive”.
Regarding `Cc1ccc(S(=O)(=O)Nc2ccc3c(c2)C(=O)N([C@H](C)CO)C[C@H](C)[C@H](CN(C)C(=O)NC2CCCCC2)OCCCC[C@H](C)O3)cc1`, the cytotoxicity call in assay [1] and in assay [2] was “inactive” throughout. Further, the growth inhibition call in assay [3] is “inactive”.
As to `C[C@H]1CN([C@@H](C)CO)S(=O)(=O)c2ccc(-c3cncnc3)cc2O[C@H]1CN(C)C(=O)Cc1ccncc1`, the cytotoxicity call in assay [1] and in assay [2] was “inactive” throughout. Besides, the growth inhibition call in assay [3] was “inactive”.
For `C[C@H]1CN([C@@H](C)CO)C(=O)CCCn2cc(nn2)CO[C@@H]1CN(C)S(=O)(=O)c1cn(C)cn1`, the cytotoxicity call in assay [1] and in assay [2] was “inactive” in each case. Further, the growth inhibition call in assay [3] is “inactive”.
In the case of `C[C@@H]1CN([C@H](C)CO)C(=O)c2cc(C#Cc3ccccc3)cnc2O[C@H]1CN(C)C(=O)CCN1CCCCC1`, the cytotoxicity call in assay [1] and in assay [2] was “inactive” each time. Besides, in assay [3], the growth inhibition call was “inactive”.
Take `N=C(N)SC=CC(=O)O`: the cytotoxicity call in assay [1] and in assay [2] was “inactive” throughout. Moreover, the growth inhibition call in assay [3] is “inactive”.
Take `C[C@@H]1CN([C@H](C)CO)S(=O)(=O)c2ccc(C#CC3(O)CCCC3)cc2O[C@H]1CN(C)C(=O)Nc1ccc(F)cc1`: the cytotoxicity call in assay [1] and in assay [2] was “inactive” in each case. Also, the growth inhibition call in assay [3] is “inactive”.
For the molecule `C[C@@H]1CC[C@@]2(OC1)O[C@H]1C[C@H]3[C@H]4C[C@@H](O)[C@H]5C[C@@H](O[C@@H]6O[C@H](CO)[C@H](O[C@@H]7O[C@H](CO)[C@@H](O)[C@H](O[C@@H]8OC[C@@H](O)[C@H](O)[C@H]8O)[C@H]7O[C@@H]7O[C@H](CO)[C@@H](O[C@@H]8O[C@H](CO)[C@@H](O)[C@H](O)[C@H]8O)[C@H](O)[C@H]7O)[C@H](O)[C@H]6O)CC[C@]5(C)[C@@H]4CC[C@]3(C)[C@H]1[C@@H]2C`, the cytotoxicity call in assay [1] and in assay [2] was “active” in each case. Moreover, in assay [3], the growth inhibition call is “inactive”.
Consider `CO[C@@H](CN(C)C(=O)c1ccccc1F)[C@@H](C)CN([C@@H](C)CO)S(=O)(=O)c1ccc(Cl)cc1`, for which the cytotoxicity call in assay [1] and in assay [2] was “inactive” each time. Moreover, the growth inhibition call in assay [3] was “inactive”.
For `C[C@H]1CN([C@@H](C)CO)S(=O)(=O)c2ccc(C#CC3(O)CCCC3)cc2O[C@@H]1CN(C)C(=O)c1cccnc1`, the cytotoxicity call in assay [1] and in assay [2] was “inactive” each time. Besides, the growth inhibition call in assay [3] was “inactive”.
Consider `COc1cccc(NC(=O)N[C@H]2C=C[C@H](CC(=O)N3CCOCC3)O[C@H]2CO)c1`, for which the cytotoxicity call in assay [1] and in assay [2] was “inactive” in each case. For the same molecule, the growth inhibition call in assay [3] is “inactive”.
For the molecule `CCOC(=O)[C@@H](C#N)C(=O)C1CC1`, the cytotoxicity call in assay [1] and in assay [2] was “inactive” each time. Moreover, in assay [3], the growth inhibition call is “inactive”.
For `C[C@@H]1CN([C@@H](C)CO)C(=O)c2c(c3ccccc3n2C)-c2ccccc2CO[C@H]1CN(C)Cc1cccc(C(=O)Nc2ccccc2N)c1`, the cytotoxicity call in assay [1] and in assay [2] was “inactive” each time. Moreover, the growth inhibition call in assay [3] was “inactive”.
As to `COc1ccc(NC(=O)Nc2ccc3c(c2)C(=O)N([C@H](C)CO)C[C@@H](C)[C@@H](CN(C)C(=O)NC(C)C)OCCCC[C@H](C)O3)cc1`, the cytotoxicity call in assay [1] and in assay [2] was “inactive” each time. Moreover, in assay [3], the growth inhibition call is “inactive”.
Regarding `CC1(C)S[C@H]2[C@@H](NC(=O)[C@@H](N)c3ccccc3)C(=O)N2[C@@H]1C(=O)O`, the cytotoxicity call in assay [1] is “inactive”. Also, the cytotoxicity call in assay [2] is “active”. Also, the growth inhibition call in assay [3] is “inactive”.
As to `C[C@H](CO)N1C[C@H](C)[C@@H](CN(C)S(=O)(=O)c2cccc(F)c2)Oc2ncc(C#CC3(O)CCCC3)cc2C1=O`, the cytotoxicity call in assay [1] and in assay [2] was “inactive” throughout. Moreover, the growth inhibition call in assay [3] is “inactive”.
In the case of `C[C@@H]1CN([C@H](C)CO)C(=O)Cc2cc(NC(=O)C3CCCCC3)ccc2O[C@H]1CN(C)Cc1ccc(-c2ccccc2)cc1`, the cytotoxicity call in assay [1] and in assay [2] was “inactive” throughout. Further, the growth inhibition call in assay [3] was “inactive”.
Regarding `C[C@@H]1CCCCO[C@H](CN(C)S(=O)(=O)c2ccccc2)[C@H](C)CN([C@H](C)CO)C(=O)c2cc(NS(=O)(=O)c3cn(C)cn3)ccc2O1`, the cytotoxicity call in assay [1] and in assay [2] was “inactive” each time. Also, the growth inhibition call in assay [3] was “inactive”.
For `Cc1cc(=O)nc2[nH][nH]c(=S)n12`, the cytotoxicity call in assay [1] and in assay [2] was “inactive” throughout. Besides, the growth inhibition call in assay [3] is “inactive”.
For `Cc1ccc(S(=O)(=O)N(C)C[C@@H]2Oc3c(NC(=O)c4ccncc4)cccc3C(=O)N([C@H](C)CO)C[C@@H]2C)cc1`, the cytotoxicity call in assay [1] and in assay [2] was “inactive” throughout. The growth inhibition call in assay [3] is “inactive”.
Regarding `Cc1cn([C@H]2C[C@@H](NC(=O)C(C)(C)C)[C@@H](CO)O2)c(=O)[nH]c1=O`, the cytotoxicity call in assay [1] and in assay [2] was “inactive” each time. The growth inhibition call in assay [3] was “inactive”.
Regarding `CC(=O)Oc1cccc(C(=O)O)c1OC(C)=O`, the cytotoxicity call in assay [1] and in assay [2] was “inactive” in each case. In addition, in assay [3], the growth inhibition call is “inactive”.
Regarding `Cc1ccc(S(=O)(=O)N[C@@H]2C=C[C@H](CC(=O)NCCN3CCCCC3)O[C@@H]2CO)cc1`, the cytotoxicity call in assay [1] and in assay [2] was “inactive” each time. For the same molecule, the growth inhibition call in assay [3] is “inactive”.
As to `CSc1c(-c2ccc(Cl)cc2)[nH]c2ccccc12`, in assay [1], the cytotoxicity call was “inactive”. Moreover, the cytotoxicity call in assay [2] is “active”. Also, the growth inhibition call in assay [3] is “active”.
On to `CC(C)(C)NCc1ccccc1F`, for which the cytotoxicity call in assay [1] and in assay [2] was “inactive” each time. For the same molecule, the growth inhibition call in assay [3] is “inactive”.
Consider `Cc1ccc(S(=O)(=O)Nc2ccc3c(c2)C(=O)N([C@H](C)CO)C[C@@H](C)[C@H](CN(C)S(=O)(=O)c2ccc(Cl)cc2)OCCCC[C@@H](C)O3)cc1`, for which the cytotoxicity call in assay [1] was “inactive”. In addition, the cytotoxicity call in assay [2] is “active”. Moreover, in assay [3], the growth inhibition call was “inactive”.
For `COc1ccccc1S(=O)(=O)N[C@@H]1CC[C@@H](CCNC(=O)C2CC2)O[C@@H]1CO`, the cytotoxicity call in assay [1] and in assay [2] was “inactive” each time. The growth inhibition call in assay [3] was “inactive”.
`CC(=O)[C@@]12C=CCC[C@@H]1C[C@@H](C(=O)Nc1c(C)cccc1Cl)N2C(=O)c1nc(C)oc1C(F)(F)F`: the cytotoxicity call in assay [1] and in assay [2] was “inactive” each time. The growth inhibition call in assay [3] was “inactive”.
In the case of `COc1ccc(S(=O)(=O)Nc2ccc3c(c2)[C@@H]2C[C@H](CC(=O)NCC4CC4)O[C@@H](CO)[C@@H]2O3)cc1`, the cytotoxicity call in assay [1] and in assay [2] was “inactive” throughout. The growth inhibition call in assay [3] was “inactive”.
For `C[C@@H]1CN([C@@H](C)CO)C(=O)Cc2cc(NS(=O)(=O)c3cn(C)cn3)ccc2O[C@H]1CN(C)CC1CC1`, the cytotoxicity call in assay [1] and in assay [2] was “inactive” each time. Moreover, in assay [3], the growth inhibition call is “inactive”.
Turning to `N[C@@H]1[C@@H](O)[C@H](O)[C@@H](CO)O[C@H]1O`, the cytotoxicity call in assay [1] and in assay [2] was “inactive” each time. Besides, in assay [3], the growth inhibition call is “inactive”.
In the case of `C[C@@H]1CN([C@@H](C)CO)S(=O)(=O)c2ccc(C3=CCCC3)cc2O[C@@H]1CN(C)S(=O)(=O)c1cn(C)cn1`, the cytotoxicity call in assay [1] and in assay [2] was “inactive” each time. The growth inhibition call in assay [3] was “inactive”.
As to `CCOC(=O)c1c(CNCCN(CC)CC)n(-c2ccccc2)c2cc(Br)c(OC)cc12`, the cytotoxicity call in assay [1] was “inactive”. Also, the cytotoxicity call in assay [2] is “active”. Moreover, in assay [3], the growth inhibition call was “inactive”.
As for `COc1ccc(NC(=O)N(C)C[C@H]2OCCCC[C@H](C)Oc3ccc(NS(=O)(=O)c4ccc(Cl)cc4)cc3C(=O)N([C@H](C)CO)C[C@@H]2C)cc1`, the cytotoxicity call in assay [1] and in assay [2] was “inactive” in each case. In addition, the growth inhibition call in assay [3] was “inactive”.
With `C=CC[C@@H](CC(=O)N(CCO)Cc1ccccc1)C(=O)N[C@@H](COC(=O)[C@H](CC=C)CC(=O)OC(C)(C)C)Cc1c[nH]c2ccccc12`, the cytotoxicity call in assay [1] and in assay [2] was “inactive” in each case. Also, the growth inhibition call in assay [3] is “inactive”.
Consider `C[C@H](CO)N1C[C@H](C)[C@@H](CN(C)Cc2ccc(-c3ccccc3)cc2)Oc2ccc(NC(=O)Nc3ccc4c(c3)OCO4)cc2C1=O`, for which the cytotoxicity call in assay [1] and in assay [2] was “inactive” in each case. Moreover, in assay [3], the growth inhibition call is “inactive”.
For the molecule `OC[C@@H]1CC[C@@H]2O[C@H](CCc3ccc(C#Cc4ccccc4)cc3)[C@H](n3cc(-c4ccccc4)nn3)C[C@@H]2O1`, the cytotoxicity call in assay [1] is “active”. The cytotoxicity call in assay [2] was “inactive”. Besides, in assay [3], the growth inhibition call is “inactive”.
Take `C[C@H](CO)N1C[C@H](C)[C@H](CN(C)C(=O)Nc2cccc3ccccc23)Oc2ncc(C#Cc3ccccc3)cc2C1=O`: the cytotoxicity call in assay [1] and in assay [2] was “inactive” each time. Also, the growth inhibition call in assay [3] is “inactive”.
For the molecule `COc1ccc(S(=O)(=O)N(C)C[C@@H]2OCCCC[C@@H](C)Oc3ccc(NC(=O)Nc4cccc5ccccc45)cc3C(=O)N([C@H](C)CO)C[C@H]2C)cc1`, the cytotoxicity call in assay [1] and in assay [2] was “inactive” each time. In assay [3], the growth inhibition call is “inactive”.
As for `C[C@H]1CCCCO[C@@H](CN(C)C(=O)Nc2ccc3c(c2)OCO3)[C@@H](C)CN([C@@H](C)CO)C(=O)c2cc(NC(=O)NC3CCCCC3)ccc2O1`, the cytotoxicity call in assay [1] and in assay [2] was “inactive” in each case. In addition, the growth inhibition call in assay [3] was “inactive”.
On to `C[C@H](CO)N1C[C@H](C)[C@H](CN(C)C(=O)Nc2cccc(Oc3ccccn3)c2)OCc2cnnn2CCCC1=O`, for which the cytotoxicity call in assay [1] and in assay [2] was “inactive” each time. The growth inhibition call in assay [3] is “inactive”.

The values above are taken from the antibiotic and cytotoxicity screens of Wong et al. (2023).
